This is one part of the list. Values were computed here from the reads of four pooled replicates and scatter widely.

The target in the test is T1, Pho4 (S. cerevisiae) (UniProt P07270).
T1 sequence: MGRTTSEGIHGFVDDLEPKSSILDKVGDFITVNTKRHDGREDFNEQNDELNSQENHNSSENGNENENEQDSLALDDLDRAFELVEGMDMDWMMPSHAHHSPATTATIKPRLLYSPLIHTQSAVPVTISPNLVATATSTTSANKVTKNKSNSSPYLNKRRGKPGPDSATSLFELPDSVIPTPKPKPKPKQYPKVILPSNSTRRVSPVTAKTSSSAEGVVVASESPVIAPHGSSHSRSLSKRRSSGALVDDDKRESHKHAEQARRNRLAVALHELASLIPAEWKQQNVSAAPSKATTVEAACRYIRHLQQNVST
The test is described as follows: relative binding free energy (BET-seq); higher = weaker binding. The conditions noted are these: reference: library average.
With CTAATCACGTGTCGGT, the “relative binding free energy” value stood at 0.34 kcal/mol.

AGTTGCACGTGTGGAA: the “relative binding free energy” value was -0.01 kcal/mol.

Consider AATTACACGTGTGGAA, for which the “relative binding free energy” value was 0.2 kcal/mol.

In the case of TATATCACGTGGTGTA, the “relative binding free energy” value is 0.1 kcal/mol.

As for GATTGCACGTGGGGAT, the “relative binding free energy” value is -0.02 kcal/mol.

With TTGTGCACGTGTTTTC, the “relative binding free energy” value stood at 0.07 kcal/mol.

With GTGATCACGTGCTGTT, the “relative binding free energy” value was -0.01 kcal/mol.

As to GAATGCACGTGAACGG, the “relative binding free energy” value was found to be 0.45 kcal/mol.

GAAGGCACGTGTGGTA: the “relative binding free energy” value was found to be 0.05 kcal/mol.

In the case of TGTCGCACGTGGTAGT, the “relative binding free energy” value was -0.12 kcal/mol.

TGAGGCACGTGTGTGC: the “relative binding free energy” value was -0.15 kcal/mol.

For the sequence TCGTTCACGTGTGCGG, the “relative binding free energy” value was determined as 0.23 kcal/mol.

Turning to TCTGTCACGTGGTTGC, the “relative binding free energy” value stood at 0.01 kcal/mol.

Consider TTTGTCACGTGATTAA, for which the “relative binding free energy” value came out at 0.19 kcal/mol.

Regarding CAGAGCACGTGGAGTT, the “relative binding free energy” value worked out at 0.04 kcal/mol.

As to AGTTGCACGTGGGCTG, the “relative binding free energy” value is -0.05 kcal/mol.

As for TAAGTCACGTGGGGCT, the “relative binding free energy” value was -0.09 kcal/mol.

For the sequence GTGTGCACGTGAGATA, the “relative binding free energy” value was 0.38 kcal/mol.

For CGTAGCACGTGTGCAG, the “relative binding free energy” value is -0.05 kcal/mol.

On to GGGAACACGTGTTGGT, for which the “relative binding free energy” value was 0.13 kcal/mol.

With CTTTGCACGTGTTTTA, the “relative binding free energy” value amounted to 0.07 kcal/mol.

Take TTGTACACGTGATTAT: the “relative binding free energy” value was 0 kcal/mol.

GCGGTCACGTGTACGT: the “relative binding free energy” value is 0.22 kcal/mol.

Take ATGGACACGTGTATGG: the “relative binding free energy” value is -0.06 kcal/mol.

Turning to CTTAGCACGTGTATTG, the “relative binding free energy” value is -0.1 kcal/mol.

Take TTTTTCACGTGGGAAG: the “relative binding free energy” value was 0.27 kcal/mol.

For the sequence TTAGGCACGTGGGACA, the “relative binding free energy” value is -0.26 kcal/mol.

GGTGGCACGTGATTAT: the “relative binding free energy” value was 0.06 kcal/mol.

As to TCTGACACGTGTTGTG, the “relative binding free energy” value was -0.12 kcal/mol.

Consider TAAGACACGTGGTATT, for which the “relative binding free energy” value is -0.1 kcal/mol.

Take TTTTGCACGTGAGGGC: the “relative binding free energy” value is 0.23 kcal/mol.

Turning to ATTTTCACGTGATTCG, the “relative binding free energy” value turned out to be 0.08 kcal/mol.

With TGGGTCACGTGGGGTT, the “relative binding free energy” value was found to be 0.02 kcal/mol.

On to GGTGCCACGTGAGTAT, for which the “relative binding free energy” value came out at 0.13 kcal/mol.

Turning to GGGGGCACGTGTTGAT, the “relative binding free energy” value came out at 0.06 kcal/mol.

On to GGGGTCACGTGGGGGT, for which the “relative binding free energy” value is 0.03 kcal/mol.

On to TGTAGCACGTGAAGCT, for which the “relative binding free energy” value is 0.15 kcal/mol.

For the sequence GTTAGCACGTGATTGG, the “relative binding free energy” value worked out at 0.17 kcal/mol.

Take GACGGCACGTGGTATT: the “relative binding free energy” value was -0.07 kcal/mol.

For the sequence GTTGGCACGTGGCGAA, the “relative binding free energy” value was -0.04 kcal/mol.

Take AGGCTCACGTGTATTG: the “relative binding free energy” value amounted to 0.26 kcal/mol.

Take GGTGACACGTGTACGT: the “relative binding free energy” value was 0.09 kcal/mol.

TATATCACGTGAGTGA: the “relative binding free energy” value was 0.25 kcal/mol.

For the sequence GAATGCACGTGTGTTT, the “relative binding free energy” value was 0.17 kcal/mol.

Consider AACAGCACGTGTTGGG, for which the “relative binding free energy” value was -0.06 kcal/mol.

In the case of GACGTCACGTGATTGT, the “relative binding free energy” value was 0.35 kcal/mol.

Turning to GCGGGCACGTGCATGT, the “relative binding free energy” value was -0.16 kcal/mol.

On to AATTACACGTGTATGT, for which the “relative binding free energy” value was 0.02 kcal/mol.

As for AGCTGCACGTGATTGG, the “relative binding free energy” value was 0.01 kcal/mol.

TTACACACGTGGGATG: the “relative binding free energy” value was -0.1 kcal/mol.

As to GTATTCACGTGGCAAT, the “relative binding free energy” value was 0.29 kcal/mol.

As for TGGTACACGTGAGGGG, the “relative binding free energy” value was determined as 0.27 kcal/mol.

For the sequence AGTGTCACGTGCAGTA, the “relative binding free energy” value was -0.12 kcal/mol.

For the sequence AGTGGCACGTGTCGGC, the “relative binding free energy” value was determined as 0.05 kcal/mol.

Regarding TTGGTCACGTGGCGAT, the “relative binding free energy” value was -0.01 kcal/mol.

For GTATACACGTGTCAGT, the “relative binding free energy” value was found to be 0.13 kcal/mol.

With GGGGGCACGTGCTGTT, the “relative binding free energy” value is -0.16 kcal/mol.

For the sequence TTTTGCACGTGAGGAT, the “relative binding free energy” value amounted to 0.11 kcal/mol.

With TTTTTCACGTGGGGGG, the “relative binding free energy” value was 0.39 kcal/mol.

Regarding TCCGGCACGTGTGGAG, the “relative binding free energy” value stood at 0 kcal/mol.

In the case of ACTGTCACGTGTGGGA, the “relative binding free energy” value was 0.14 kcal/mol.

TGGCACACGTGGTATA: the “relative binding free energy” value is 0.05 kcal/mol.

Turning to AATAGCACGTGGCAGT, the “relative binding free energy” value was -0.08 kcal/mol.

Turning to TTTAACACGTGGCGTC, the “relative binding free energy” value worked out at 0.03 kcal/mol.

For TCATGCACGTGTAGGA, the “relative binding free energy” value came to 0 kcal/mol.

With TAAGACACGTGGGTGC, the “relative binding free energy” value was -0.08 kcal/mol.

In the case of TGGCGCACGTGGGCAG, the “relative binding free energy” value is -0.21 kcal/mol.

Turning to AACTTCACGTGTTGTT, the “relative binding free energy” value worked out at 0.28 kcal/mol.

For the sequence GCTGTCACGTGGGTGC, the “relative binding free energy” value was -0.09 kcal/mol.

As for AGTATCACGTGATGAT, the “relative binding free energy” value came out at 0.17 kcal/mol.

With GTTCGCACGTGCGTTG, the “relative binding free energy” value was determined as 0.03 kcal/mol.

Turning to TGACTCACGTGAGTAT, the “relative binding free energy” value stood at 0.45 kcal/mol.

In the case of AGGGTCACGTGCTGGC, the “relative binding free energy” value is -0.01 kcal/mol.

As for TAAAACACGTGGGTTT, the “relative binding free energy” value was -0.15 kcal/mol.

Take AAGGTCACGTGGATCG: the “relative binding free energy” value is 0.05 kcal/mol.

As to CTTTGCACGTGAGTAG, the “relative binding free energy” value stood at 0.18 kcal/mol.

As for GGGGTCACGTGGATGC, the “relative binding free energy” value was 0.09 kcal/mol.

As for TTATTCACGTGTAGTA, the “relative binding free energy” value stood at 0.19 kcal/mol.

As to GGGGGCACGTGTGCGT, the “relative binding free energy” value is -0.1 kcal/mol.

GGCTGCACGTGGTGAA: the “relative binding free energy” value is 0.14 kcal/mol.

As for ATTACCACGTGTTTTG, the “relative binding free energy” value stood at 0.1 kcal/mol.

With TAAGTCACGTGTAATT, the “relative binding free energy” value is 0.15 kcal/mol.

For the sequence ATAATCACGTGCTTGG, the “relative binding free energy” value stood at 0.04 kcal/mol.

For the sequence TTAGGCACGTGGCGTT, the “relative binding free energy” value was -0.16 kcal/mol.

As to TGCCGCACGTGTGGTG, the “relative binding free energy” value is -0.13 kcal/mol.

For GAGGGCACGTGAGTTA, the “relative binding free energy” value came out at 0.21 kcal/mol.

On to GGGATCACGTGTGGAA, for which the “relative binding free energy” value was 0.33 kcal/mol.

As for ATTTACACGTGTCCGT, the “relative binding free energy” value is 0.14 kcal/mol.

Consider TGGGCCACGTGGGTTG, for which the “relative binding free energy” value is -0.19 kcal/mol.

Take AGGGGCACGTGGGGGA: the “relative binding free energy” value was -0.19 kcal/mol.

For GTCGACACGTGAGGTG, the “relative binding free energy” value amounted to 0.18 kcal/mol.

For the sequence CTAGACACGTGTTTGT, the “relative binding free energy” value is -0.06 kcal/mol.

Consider TTCAGCACGTGTTTTT, for which the “relative binding free energy” value was -0.04 kcal/mol.

Turning to TTGTACACGTGTAGAG, the “relative binding free energy” value came out at 0.11 kcal/mol.

Turning to GGTAACACGTGGACGG, the “relative binding free energy” value was found to be 0.01 kcal/mol.

For GTGTACACGTGTGATT, the “relative binding free energy” value came out at 0.17 kcal/mol.

On to TGTATCACGTGTTCTC, for which the “relative binding free energy” value stood at 0.45 kcal/mol.

Consider CCATTCACGTGGTGGG, for which the “relative binding free energy” value amounted to 0.1 kcal/mol.

On to ATGCTCACGTGTTGTA, for which the “relative binding free energy” value came out at 0.17 kcal/mol.

GTGGGCACGTGGTATA: the “relative binding free energy” value is -0.1 kcal/mol.

Regarding TTTTTCACGTGTTACG, the “relative binding free energy” value came out at 0.42 kcal/mol.

Regarding GGGGTCACGTGGGACG, the “relative binding free energy” value came out at 0.18 kcal/mol.

Turning to AGGTGCACGTGTGCGA, the “relative binding free energy” value was -0.14 kcal/mol.

With TTAATCACGTGTAAGG, the “relative binding free energy” value is 0.24 kcal/mol.

On to AGGGACACGTGAGTGA, for which the “relative binding free energy” value was determined as 0.27 kcal/mol.

In the case of CCAGGCACGTGTGTGG, the “relative binding free energy” value was -0.16 kcal/mol.

For the sequence TTTTTCACGTGATGGC, the “relative binding free energy” value is 0.45 kcal/mol.

Turning to TGGTGCACGTGAAAAG, the “relative binding free energy” value stood at 0.24 kcal/mol.

Regarding TGGTGCACGTGGATCG, the “relative binding free energy” value is 0.05 kcal/mol.

In the case of ATAAACACGTGTAAGG, the “relative binding free energy” value is 0.03 kcal/mol.

For TGTAACACGTGTCGTT, the “relative binding free energy” value is -0.07 kcal/mol.

As to CGTATCACGTGTATGT, the “relative binding free energy” value worked out at 0.05 kcal/mol.

As to TTTCGCACGTGTGTTT, the “relative binding free energy” value was -0.07 kcal/mol.

Take CGTGGCACGTGGTTTA: the “relative binding free energy” value is -0.18 kcal/mol.

On to TTAGTCACGTGTTTCA, for which the “relative binding free energy” value was 0.08 kcal/mol.

For the origin of these results see the BET-seq Pho4 binding data (Le et al. 2018).
